Measurements: PubChem BioAssay AID686978 (National Center for Advancing Translational Sciences (NCATS), 2013)
“And” between values parts separate entries of the source, which are not always exact repeats. Equal values may be shown once. About 64,000 (15%) of roughly 420,000 compounds were called active. The shares of active, inactive and inconclusive entries below differ from those in the screen. Calls come from the whole dose curve; as a rule, active = well fitted inhibition curve with a large enough effect; inconclusive = small, poorly fitted or top-dose-only effect; inactive = flat fitted curve, though single readings scatter. No potency is given beside an inconclusive call; the fits are too rough. The source holds several records for some structures; these can differ, active in one and inactive in another.

Test: qHTS for Inhibitors of human tyrosyl-DNA phosphodiesterase 1 (TDP1): qHTS in cells in absence of CPT; note: nearly all actives have a fitted effect of over 55% in size
Settings: DT40 Tdp1-/- hTDP1 cells, no CPT, ATP luminescence, 48 h; activity change, negative = growth inhibition: at 46.2 µM (top of the series)
Outline: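 A cellular qHTS used chicken DT40 cells lacking endogenous Tdp1 but carrying stably transfected human TDP1. Compounds were applied without camptothecin, and cell growth kinetics were judged by ATP-dependent luminescence after ≥48 hr.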
% is set by controls: 0 for no effect and ±100 for the full control effect; potency is the fitted concentration of half-maximal effect; tags give direction and shape of the fitted curve.

SMILES	Potency	activity change, negative = growth inhibition
O=C(OCc1ccccc1)N1CCC2CC1c1cc(NCCc3ccccc3)ccc12 (configuration not stated)	inconclusive [inhibitor, single point]	
Cn1ncc2c(Nc3cccc(C#N)c3)ncnc21		inconclusive: -34.3% [inhibitor]
CCOc1ccc(C(C)=O)cc1CN1c2ccc(S(N)(=O)=O)cc2CC1C (configuration not stated)	inconclusive [inhibitor, single point]	
CC1CCC2(CC1)NC(=O)N(NC(=O)c1cccc(N(C)C)c1)C2=O (configuration not stated)	inactive	
CCOc1ccc(CCN2C(=O)C(=O)N([C@@H](CC(C)C)CN3CCC[C@H]3CN3C(=O)C(=O)NC[C@@H]3Cc3ccccc3)C[C@@H]2Cc2ccc(O)cc2)cc1	inconclusive [inhibitor, single point]	
Nc1nc(CSC(=S)N2CCN(c3ccccc3)CC2)nc(Nc2ccccc2)n1	inconclusive [inhibitor, single point]	
CC(C)NC(=O)N(O)C1N(Cc2ccc3c(c2)OCO3)C(=S)SC1(C)C (configuration not stated)	active: 14.6 µM	
CCc1ccccc1S(=O)(=O)Cc1ccc(C(=O)N2CCN(c3ccccc3OC)CC2)o1	active: 13 µM	
CC(C)OC(=O)c1ccc(NCc2cc(O)ccc2O)cc1	active: 2.31 µM	
COc1ccc(C(=O)C(C)C(C)=O)c(OCc2ccccc2)c1OC (configuration not stated)	inconclusive [inhibitor, partial curve]	
Cc1cc(S(=O)(=O)NC(C)C)ccc1OCC(=O)NCc1ccccc1	inconclusive [inhibitor, single point]	
CC1CC(C)CN(C(=O)C(C)N(C)CC(=O)Nc2ccccc2Cl)C1 (configuration not stated)	inactive	
Cc1cc(C)cc(NC(=O)C(=O)NCC(c2cccnc2)N2CCOCC2)c1 (configuration not stated)	inactive	
O=C1C=C(c2cccc3c2sc2ccccc23)C[C@@H](c2ccc(Cl)cc2)C1	inconclusive [inhibitor, single point]	
O=C(Nc1cc(C(F)(F)F)ccc1N1CCOCC1)C1Cc2ccccc2CN1C(=O)c1ccco1 (configuration not stated)	inconclusive [inhibitor, single point]	
C/C(=N\NC(=O)c1ccc(NS(=O)(=O)c2cccs2)cc1)c1ccc2ccccc2c1	inconclusive [inhibitor, single point]	
COc1cc(NS(=O)(=O)c2ccc(Br)cc2)c(OC)cc1NC(=O)c1ccco1	inconclusive [inhibitor, single point]	
Cc1cc2ccccc2c(=O)n1CC(=O)NC1CCCCCC1	inconclusive [inhibitor, partial curve, poor fit]	
Cc1ccccc1OCCSc1nnc(-c2cccs2)o1	inconclusive [inhibitor, single point]	
Cc1ccnc(NS(=O)(=O)c2ccc(NC(=O)CN3C(=O)c4ccccc4S3(=O)=O)cc2)n1	inactive	
CCC(CC)c1nnc(NC(=O)CCc2ccccc2)s1	inconclusive [inhibitor, single point]	
COc1ccc(COC(=O)C2=C(C)NC(=O)NC2c2cccc(OC)c2OC)cc1 (configuration not stated)	inactive	
Cc1nc(Nc2ncc(C(=O)Nc3c(C)cccc3Cl)s2)cc(N2CCN(CCO)CC2)n1	active: 3.98 µM and active: 2.37 µM	
CC(=O)N1CCN(CC(O)COc2ccc(Br)cc2)CC1 (configuration not stated)	inconclusive [inhibitor, single point]	

SMILES	Potency	activity change, negative = growth inhibition
c1ccc(OCCNc2nc(NCC3CC3)nc3cc(-c4ccccc4)sc23)cc1	active: 5.8 µM	
CCN(CCO)CCCC(C)Nc1ccnc2cc(Cl)ccc12 (configuration not stated)	active: 4.11 µM	
O=C(O)/C=C\C(=O)Nc1ccc(F)c(F)c1F	inactive	
Cc1ccccc1/C=C/C12NC(=O)CN1c1ccccc1C2(C)C (configuration not stated)	inconclusive [inhibitor, partial curve]	
CCOc1cc(C(=O)Nc2ccc(C)cc2O)ccc1OCC(=O)N1CCOCC1	inconclusive [inhibitor, single point]	
CCCCNC(=S)N/N=C/c1cc(C)ccc1C	active: 6.51 µM	
CCN1CCN(Cc2ccc(NC(=O)c3ccc(C)c(NC(=O)c4ccc5n[nH]nc5c4)c3)cc2C(F)(F)F)CC1	inactive	
CCC[C@H]1COCCS(=O)(=O)N1Cc1ccccc1	inconclusive [inhibitor, single point]	
O=C1C2C3C=CC(O3)C2C(=O)N1Nc1ccccc1 (configuration not stated)	inactive	
COc1ccc(Cl)cc1NC(=O)NC1CCCCC1	inconclusive [inhibitor, partial curve]	
COc1ccc(-n2nc(C(=O)NCC(=O)NC3CCCC(C)C3C)c3ccccc3c2=O)c(OC)c1 (configuration not stated)	inconclusive [inhibitor, single point]	
CC(C)(C)c1ccc(NC(=O)NCc2ccco2)cc1	active: 14.6 µM	
Cc1ccc(NC(=O)Cn2c(=O)n(CCC(C)C)c(=O)c3cccnc32)cc1C	inconclusive [inhibitor, single point]	
CCOC(=O)c1ccc(NC(=O)Cn2cccc2)cc1	active: 16.4 µM	
COCCOC(=O)N1CCCCC1c1cc(C(=O)NCc2ccc(Cl)c(Cl)c2)no1 (configuration not stated)	inconclusive [inhibitor, single point]	
CCOc1cccc(OCCOCCN2CCCC2)c1	inactive	
COc1ccccc1N1CCN(C(=O)Cn2c(=O)nc(-c3ccccc3)c3ccccc32)CC1	active: 14.6 µM	
C/C(=N\NC(=O)c1ccncc1)c1cccnc1	inactive	
COc1ccc([N+](=O)[O-])cc1NC(=O)COC(=O)/C=C/c1ccco1		inconclusive: -32% [inhibitor]
Cc1sc(NC(=O)C2=COCCO2)nc1-c1ccc(Br)cc1	inconclusive [inhibitor, single point]	
CCOC(=O)C1(CCCc2ccccc2)CCN(C(=O)c2n[nH]c(CC)c2C)CC1	active: 13 µM	
CCOC(=O)[C@H]1[C@H]2COc3ccc(Br)cc3[C@H]2N2C(=O)CN(Cc3ccc(C)cc3)C(=O)[C@@]12C		inconclusive: -33.1% [inhibitor]
COc1ccc(OC)c(/C=N/NC2=NS(=O)(=O)c3ccccc32)c1	inactive	
CCN(CC(=O)Nc1ccc(C)c(S(=O)(=O)N2CCOCC2)c1)Cc1ccccc1	inconclusive [inhibitor, single point]	

SMILES	Potency	activity change, negative = growth inhibition
CCCCCCN=C(C)C1=C(O)C(C(=O)OC)C(C)(C)CC1=O (configuration not stated)	inconclusive [inhibitor, partial curve]	
COc1cc(OC)cc(C(=O)Nc2nc3ccc(S(C)(=O)=O)cc3s2)c1	inconclusive [inhibitor, full curve]	
CCN(CC)S(=O)(=O)c1ccc(Cl)c(NC(=O)c2ccccc2C)c1	active: 23.1 µM	
CCOc1cc(NC(=S)NCC2CCCO2)c(OCC)cc1NC(=O)c1cccc(C)c1 (configuration not stated)	inconclusive [inhibitor, single point]	
Cc1ccc2[nH]c3c(c2c1)CCN1C(=O)OC(C)(C)C31C (configuration not stated)	inactive	
CCCOc1ccc(C(=O)NNC(=S)NC(=O)c2cc(-c3ccccc3)nc3ccccc23)cc1	inconclusive [inhibitor, single point]	
O=C(CSc1nnc(NC(=O)C2CC2)s1)NCc1ccccc1	inactive	
CCCNC(=O)c1ccc2c(=O)c(O)c(-c3ccsc3)[nH]c2c1	active: 18.4 µM	
O=C(N/C(=C/c1cccs1)C(=O)N1CCOCC1)c1cccs1	inactive	
COc1cc2c(cc1OC)C(c1ccccc1)N(C(=O)c1ccco1)CC2 (configuration not stated)	active: 20.6 µM	
Cc1nc2c(sc3nc4c(cc32)COC(C)(C)C4)c(=O)o1	inactive	
COCCNC(=O)C1(C)CCCN(C(=O)COc2ccccc2)C1 (configuration not stated)	active: 1.84 µM	
Cc1cccc(-n2c(O)cnc2Nc2nc(C)cc(C)n2)c1	inconclusive [inhibitor, single point]	
O=c1cc(CN2CCN(C/C=C/c3ccccc3)CC2)c2cc(O)c(-c3ccccc3)cc2o1	active: 18.4 µM	
CCN1CCc2c(OCC(=O)N3N=C(c4cccs4)CC3c3ccc(F)cc3)cccc2C1=O (configuration not stated)	active: 18.4 µM	
Cc1cnc(NC(=O)CSc2ncc(-c3ccccc3)n2Cc2ccco2)s1	inconclusive [inhibitor, single point]	
COc1ccccc1-c1cn(CC[C@H]2CC[C@@H](NS(=O)(=O)c3ccccc3C)[C@@H](CO)O2)nn1	inconclusive [inhibitor, single point]	
COC(=O)CC1C2(C)CC34OC5(C)O[C@@]6(C7/C(=C(/OC)C(C)C)C(=O)OC(c8ccoc8)[C@@]7(C)C(OC(=O)C(C)C)C(OC)[C@]6(O5)[C@@]13C)C(OC)[C@]4(OC)C2OC(C)=O (some centres not stated)	active: 13 µM	
Cc1nc2c(OCC(=O)C(C)(C)C)cccn2c1N(C)Cc1cccs1	inactive	
Cc1cc([N+](=O)[O-])ccc1NC(=O)CSc1nncn1-c1cccnc1	inactive	
CCCCN(C(=O)Cc1cccs1)c1nnc(-c2cccnc2)s1	inconclusive [inhibitor, single point]	
O=C(NCc1ccccc1Cl)c1ccc2c(c1)NC(=O)C(CS(=O)(=O)Cc1ccc(Cl)cc1)N2 (configuration not stated)	inconclusive [inhibitor, partial curve]	
COc1ccc(OCC(=O)N/N=C\c2ccco2)cc1	inactive	
COc1ccc(NC(=O)c2ccc(Cc3ccc(C)cc3)o2)cc1	inconclusive [inhibitor, partial curve, poor fit]	
